In all, about 310,000 compounds went through this assay and about 14,000 (4.5%) showed an effect of 50% or more. The effect is printed as a negative number. The list shows a part of the results.
Biological target: human ether-à-go-go-related gene (hERG) potassium channel (human, UniProt Q12809)
Test: primary screen, population patch clamp on CHO cells stably expressing hERG
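Note: peak tail current of the secondary pulse compared with the same well before compound.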

human ether-à-go-go-related gene (hERG) potassium channel, sequence (Q12809 whole entry, looked up): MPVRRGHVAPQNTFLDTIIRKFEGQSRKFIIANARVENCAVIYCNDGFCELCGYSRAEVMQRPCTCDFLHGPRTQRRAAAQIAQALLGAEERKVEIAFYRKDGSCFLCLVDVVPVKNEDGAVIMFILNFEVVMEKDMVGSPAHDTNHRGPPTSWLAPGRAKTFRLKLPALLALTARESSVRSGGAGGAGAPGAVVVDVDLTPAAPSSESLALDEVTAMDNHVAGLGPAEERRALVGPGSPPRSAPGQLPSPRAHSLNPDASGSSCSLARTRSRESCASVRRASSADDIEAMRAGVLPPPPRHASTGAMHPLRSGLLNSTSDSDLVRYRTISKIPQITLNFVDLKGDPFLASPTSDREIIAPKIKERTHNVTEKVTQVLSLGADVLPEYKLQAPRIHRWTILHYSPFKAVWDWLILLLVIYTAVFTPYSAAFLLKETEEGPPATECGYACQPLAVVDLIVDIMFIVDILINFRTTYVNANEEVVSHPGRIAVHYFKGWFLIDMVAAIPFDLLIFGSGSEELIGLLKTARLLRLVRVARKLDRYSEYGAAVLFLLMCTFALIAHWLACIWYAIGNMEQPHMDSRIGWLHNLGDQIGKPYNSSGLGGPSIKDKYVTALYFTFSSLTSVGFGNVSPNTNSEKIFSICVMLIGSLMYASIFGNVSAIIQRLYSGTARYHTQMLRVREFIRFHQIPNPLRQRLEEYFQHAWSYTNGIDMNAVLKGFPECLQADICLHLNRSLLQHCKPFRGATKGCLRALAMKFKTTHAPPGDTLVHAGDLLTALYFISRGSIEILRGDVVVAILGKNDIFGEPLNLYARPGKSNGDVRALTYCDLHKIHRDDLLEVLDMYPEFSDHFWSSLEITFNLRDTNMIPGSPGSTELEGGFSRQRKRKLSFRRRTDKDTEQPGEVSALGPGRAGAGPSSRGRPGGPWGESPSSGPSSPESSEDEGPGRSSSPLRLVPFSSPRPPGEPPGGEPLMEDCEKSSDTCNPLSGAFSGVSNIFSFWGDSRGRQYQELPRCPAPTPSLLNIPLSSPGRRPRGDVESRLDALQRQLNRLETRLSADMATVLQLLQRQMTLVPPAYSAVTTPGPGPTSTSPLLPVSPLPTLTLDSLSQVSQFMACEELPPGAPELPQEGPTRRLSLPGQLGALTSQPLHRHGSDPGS

In order of rising “hERG current change (%, negative = inhibition) at 10uM” value:
1. O=C(c1ccco1)N1CCN(c2nc3ccsc3c(=O)s2)CC1  -79%
2. CC1CCCCC1N(C)C1CCN(C(=O)CNC(=O)/C=C/c2cccc(Cl)c2)CC1 (centres unmarked)  -73.6%
3. COc1ccccc1CN1CCN(Cc2nc(-c3cccs3)no2)CC1  -42.8%
4. CCN(CCCNC(=O)CNC(=O)c1nn(-c2ccc(OC)c(OC)c2)c(=O)c2ccccc12)c1ccccc1  -34.3%
5. Cc1cccc(Nc2ncnc3ccc(Br)cc23)c1  -33.1%
6. O=C(NCc1cccc2[nH]ccc12)C1CCC(=O)N(CCc2ccc(Cl)cc2)C1 (centres unmarked)  -30.8%
7. Cc1ccc(S(=O)(=O)N/N=C/c2ccc(OCC(=O)NC(C)C)cc2)cc1  -24.7%
8. CN(C)c1cccc(NC(=O)C2(C)CC2(Cl)Cl)c1 (centres unmarked)  -14%
9. CC(C)[C@H](NS(=O)(=O)c1ccc2c(c1)OCCO2)C(=O)OCC(=O)Nc1ccccc1  -12%
10. CCOC(=O)C1CCN(C(=O)c2cc3c(=O)n4ccccc4nc3n2C)CC1  -7.87%
11. CC(C)(C)C(=O)COC(=O)CNC(=O)c1ccc(Oc2ccccc2)cc1  -6.73%
12. COC(=O)CCC(=O)Nc1cccc(Cl)c1  -1.98%
13. CCCCN(CC)C(=O)Cc1ccc(Br)cc1  -1.03%
14. CC(C)N(NC(=O)c1cccc2ccccc12)C(C)C  -0.506%
15. CN1C2CCC1/C(=C/c1cccn1C)C(=O)/C2=C\c1cccn1C  1.43%
16. CCCc1cc(=O)[nH]c(SCc2ccc(Cl)cc2)n1  6.26%
17. O=C(COC(=O)/C=C/c1ccccc1)Nc1cc(C(F)(F)F)ccc1N1CCOCC1  6.85%
18. COc1ccc(OC)c(NC(=O)CSc2nnc(CNC(=O)c3ccco3)o2)c1  8.54%
19. CC12CCC(C(=O)NCCc3ccccc3)(OC1=O)C2(C)C (centres unmarked)  9.83%
20. CC(=O)c1cccc(NC(=O)NCc2cccnc2)c1  12.2%
21. O=C(NCc1ccccc1Cl)c1cccc(NC2=NC3CS(=O)(=O)CC3S2)c1 (centres unmarked)  13.1%
22. CCOc1ccc(C2=Nn3c(nnc3-c3ccccc3)SC2)cc1Cl  17%
23. COc1ccc2[nH]c(C(=O)NCCc3ccccc3)cc2c1  19.6%
24. Cc1nnsc1SCCNC(=O)c1c(F)cccc1F  20%
25. O=C(CN1CCCCC1)Nc1ccccc1Cl  21.1%
26. Cc1cccc(NC(=O)Cn2c(=O)n(CC3CCCO3)c(=O)c3ccccc32)c1 (centres unmarked)  97.9%

Reference: article PMC4336329 (PLoS ONE, 2015)
